Experimental data as given in the RNAGym collection of RNA variant scans (doi:10.1073/pnas.2313332121).
Variants at the background level are over-represented here.

B1: TPR 5TU (parent)
chain: GGAUCUUCUCGAUCUAACAAAAAAGACAAAUCUGCCACAAAGCUUGAGAGCAUCUUCGGAUGCAGAGGCGGCAGCCUUCGGUGGCGCGAUAGCGCCAACGUUCUCAACUAUGACACGCAAAACGCGUGCUCCGUUGAAUGGAGUUUAUCAUG

Variants of: B1
Test: polymerase ribozyme fitness, log enrichment relative to wild type (log ratio); higher = more active; in vitro selection for triplet polymerase activity
Outline: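 A single round of triplicate in vitro selection, including frozen incubation at −7 °C, was applied to PCR-built, transcribed mutant libraries of each subunit of a heterodimeric triplet polymerase ribozyme. Illumina sequencing of input and output libraries retained genotypes with ≥10 input reads and ≥1 read per output. Fitness is the base-2 logarithm of genotype enrichment divided by wild-type enrichment, from inverse-variance-weighted replicate averages.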

| Variant | polymerase ribozyme fitness (log ratio) |
| --- | --- |
| A26C G46A C51A C85A | ≤ -4.2 |
| G25U A66C C69U A91G C103A U148A | ≤ -4.2 |
| A24U A37C G59U G62U G80U U82A C118U C132G U134C | ≤ -4.2 |
| A24G A73G C116A A138C U148G | ≤ -4.2 |
| A26C A30U C79U | ≤ -4.2 |
| A24G U31A C38G U53A C57A U77C G83A A137C | ≤ -4.2 |
| G25U C38U A47U U56G U61A G65C C79G C103G U134A | ≤ -4.2 |
| G25U C85A | -3.88 |
| A26C G70C C99U C105U G136A | ≤ -4.2 |
| A24U G94A G143U | -3.4 |
| A24U C63A | 1.21 |
| A24U C36A A49U C116G A120U A138U | ≤ -4.2 |
| A24U G58A A64C C85A G94C C95G A106C A115U C118U | ≤ -4.2 |
| A26G A28C U55A C93A A110G G140U U148A | ≤ -4.2 |
| A26C G88U G92U G117U | ≤ -4.2 |
| G25U A26C C85G A119U | ≤ -4.2 |
| G25U C43U U55A A60C G92A C103A | ≤ -4.2 |
| A26C G83C | -2.82 |
| A24G C54U G67A G141A A150C | ≤ -4.2 |
| A24G A52G U55A C85U A150C | ≤ -4.2 |
| A26G C36U C95A | ≤ -4.2 |

| Variant | polymerase ribozyme fitness (log ratio) |
| --- | --- |
| A24U G58C G88A C93U A121G | ≤ -4.2 |
| A26C C27G C32G G88A U135A | ≤ -4.2 |
| G25A G42C A52G C95U | ≤ -4.2 |
| A24G C76G G92A C103A | ≤ -4.2 |
| A26C G65A C79A A89U A97C G117A | ≤ -4.2 |
| G25C C85U A98U G126A U146C A147C | ≤ -4.2 |
| G25U G50U C96G G100A C132A G141A A147U | ≤ -4.2 |
| A24G G46U U55A A73G G81A G92A G140U | ≤ -4.2 |
| A24U A40C A47G C51G A52U G86A | ≤ -4.2 |
| A24U C76G A138G | ≤ -4.2 |
| A24G C27A A91U U102A C125A A137C U139C | ≤ -4.2 |
| A26G C32G C36A U55A U56A C87U U134A G140A | ≤ -4.2 |
| A26C A39C U61A C72A G83C G84C C85A A121C C125G G136A | ≤ -4.2 |
| G25U A41G U53G C54U G92C G124A U151C | ≤ -4.2 |
| A24C G50U G71A A73U C93G A106U C123G G128U G143C | ≤ -4.2 |
| A24G A41G A47G U61C G74A G86A A147C A150U | ≤ -4.2 |
| A24C C27U U33A A49C U53A C85U | ≤ -4.2 |
| A26C A29C C43U C54A U55A U77A C79G C93A A97U C149G | ≤ -4.2 |
| A24U C32U C35A G42C G68A C76U U144A | ≤ -4.2 |
| A24U C75A A91U | ≤ -4.2 |
| A26C C51G G65A G74C G81U C93G A119U C132U G141C | ≤ -4.2 |

| Variant | polymerase ribozyme fitness (log ratio) |
| --- | --- |
| A26G C32G | ≤ -4.2 |
| A24U C27U U55A C63G C93G A113U C114U G141C | ≤ -4.2 |
| G25U G50C A110U | ≤ -4.2 |
| G25C G42C G71C | ≤ -4.2 |
| A24G C51G A138C A142C | ≤ -4.2 |
| G25U C69A U82G A89G C125U C149U | ≤ -4.2 |
| A26C A52G | -1.25 |
| G25C A66G C85A | ≤ -4.2 |
| A26C U78C G88A C108G C114G C149G | ≤ -4.2 |
| A24G G25U A73G G94A C105G A121C G143U A147G | ≤ -4.2 |
| A26C A28U U77C C85U G128A A142U | ≤ -4.2 |
| A24G C57U | -3.7 |
| G25A C57U C76A A89G C93U | ≤ -4.2 |
| A26C G81A C85G C87A G141U C149G | ≤ -4.2 |
| G25U U33G C96U A97C G141U U146A | ≤ -4.2 |
| A24C G74C G80A C87U C93A G112A U127A A138C | ≤ -4.2 |
| A26C C79A A115C U139A | ≤ -4.2 |
| A26G C36G A49C C85A G124A U139A G143U | ≤ -4.2 |
| A24U C35A A41C G88C | ≤ -4.2 |
| A24G C85A U146C | ≤ -4.2 |
| A24C G65A G84C A97G G100U C108G | ≤ -4.2 |

| Variant | polymerase ribozyme fitness (log ratio) |
| --- | --- |
| A24G C87A C105U C149G | ≤ -4.2 |
| A24U U61A | -1.72 |
| G25U C75A A91C | ≤ -4.2 |
| A26C C32G C54U C87G C95U | -3.91 |
| G25C A64G | ≤ -4.2 |
| A26C C129U U135G G141C | ≤ -4.2 |
| A24C G84A U109A | ≤ -4.2 |
| G25U A37C G83A U134C | -2.66 |
| A24G C51G G74C A91U U101A U104G U130A A142U | ≤ -4.2 |
| A26C G50C U53G C85A C96U C118G G124C G136C U148A | ≤ -4.2 |
| A24G A29G G46U C79U A89C C93G A98C U148C G152U | ≤ -4.2 |
| A24C G25C G92A C108U | ≤ -4.2 |
| G25U C76U G94C A120G | -2.88 |
| A24C U55A A73U G84U U102A A110U A119C | ≤ -4.2 |
| G25U C32U A40U U56A G80C C85A C87A C116G U146G A150U | ≤ -4.2 |
| G25U U55C A91U | ≤ -4.2 |
| A24G C85U C96U G117C U151A | ≤ -4.2 |
| G25C A26G C51U C85U U104A A107C | ≤ -4.2 |
| A26G A40C C63U G80U G92A G126U A142U | ≤ -4.2 |
| A24G G25U U31C U55A C87G U102G | ≤ -4.2 |
| A24G U55G | -3.78 |
